From the supplement of paper PMC11417369
The other results are listed elsewhere or left out.

What follows are sequences tested on PfAP2-HC AP2 domain (GST-tagged) (assay: gcPBM binding intensity (ln(normalized median fluorescence intensity)); higher = stronger DNA binding).
Procedure, shortened: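 An Agilent 4 × 180k array carrying primer-extended double-stranded 36-bp intergenic genomic probes and negative controls received GST-tagged P. falciparum DNA-binding domains expressed in E. coli, about 25 μg on average, for 1 h. The binding buffer contained 1× PBS, 1% milk, 0.2 mg/ml BSA, 0.5% salmon testes DNA and 0.03% Triton X-100. Binding intensity is the top Masliner-normalised natural-log median intensity across replicate spots of either probe orientation, read after Alexa488 anti-GST antibody staining and a 488 nm scan.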

Sequence	gcPBM binding intensity (ln)
TATTTCATTAATGTCACTTTGAAAGAAATGAAAAAA [CACACA_negctrl_site1803]	9.38
AAAAAAAAAAGACACACACACAAAATAAACAAACAA [CACACA_site7308]	10.8
TGTTTTTAAAAAAAAAAAAAATCACACCGGCAGGTA [CACACA_negctrl_site1437]	9.49
TGCGTATATATATACACACACATATATATATTTTAA [CACACA_site1952]	9.89
TATTGACATATATTAGTGCAATAATGAAATCAAGTA	9.69
CATATTATTCTTTTCACACACGCGTTAATAATAATC [CACACA_site3931]	10
ATACATCGTATATAAGTGCATATTAAGGTCTTAAGA [GTGCAC_site9560]	9.69
GAACATTTGAAATATGCACACATGTATAAACATACA [CACACA_site5463]	9.78
TATATATGTATCAAGTGTACAGTTTTAAAAAAAAAA [XGTACX_site6011]	9.67
ACACACAATACAAAAGTGCATATAATAATTAATCAT	10.1
TTGTAATTATTAAACACACACAAAATATATATAATA [CACACA_site2523]	10.3
CCATAAAAATATAATACACACATATATATTAACATA [CACACA_site4102]	9.78
AGGTGAGCTCAGACTACACACACAAAGAAAAAAATA [CACACA_site8439]	10
AAAAAAAAAAAAAACACACACATACAGACAAAAATG [CACACA_site83]	11.5
CTAAATTATAGATCAGTGCAATTTAATATGAGTCCA	9.54
TTATCGACCAATAAAGCATGCAAAAAAAAAAAAAAA [TGCATGCA_site788]	9.33
CTACATAAAAAAATATGTACATATATATATATATAT [XGTACX_site667]	9.75
CCCACAGACAAAAACACACACAAAGGTGTTCTTATA [CACACA_site4840]	10
AAGAGAAAAAGAATGAAAGAAAAAAAAAAAAAATAT [CACACA_negctrl_site1527]	9.57
TTTTTAAAGGTGATAAAACACACGATTTAGAAATGT [CACACA_site3160]	9.67
GTGTTGAATTATGTGCTTTTTTCTTTCTACTCAGTA [XGTACX_negctrl_site464]	9.82
TTTAATATAACTATTTGTACATAAAGAATATAAATA [XGTACX_site4594]	9.38
TAAATTTTTATTTGTAGTACTATATATATATATATA [XGTACX_site1026]	9.61

Sequence	gcPBM binding intensity (ln)
TTTTTTTGCCATATTACACACACACGGGTAAACCCC [CACACA_site6874]	10.1
TAATGAAAATATATAACACACAAAAGTTATAAATAT [CACACA_site1189]	9.84
CCATTTAAAACATTTTGTACTTATTTTACATTTCTG [XGTACX_site4270]	9.79
TCGACAATTTTATAAAGTACTTATTAGAAATATGAA [XGTACX_site7133]	9.31
GATTCATTTCATAATACACACAACAAATATTTCAAA [CACACA_site120]	9.72
AAACAAATAAAATTTATTAAAAAGGTCATATTATTA [CACACA_negctrl_site85]	9.58
AGAAAAAAAAATTATACATGCATATACGTTTATTTT [TGCATGCA_site529]	9.66
ATATTTTATATTTCTTGTACATATATTTGTAGATAT [XGTACX_site1140]	9.75
TTTCTTACAACAACAACAAAAAAAAATAAATAAAAT [GTGCAC_negctrl_site711]	9.55
AATTTATTTTTAAAAAGTACATACTTAAGAAAACGA [XGTACX_site3660]	9.46
TATTATTTTTTTATTCTATTAAAAAGAAAAAAATGA [CACACA_negctrl_site407]	9.14
TATATATATATATAAACACACATAAATATAAATATA [CACACA_site1121]	9.88
TCTTTTACAAAAGCTATAACATTCACCACATTATAA [GTGCAC_negctrl_site133]	9.47
ATATATATATTTTATGCATGTTCATTTTCTATATTT [TGCATGCA_site442]	9.87
GTTAATGTGGTTACTTGTACATATTAACGTCTTTTT [XGTACX_site2617]	9.71
ATAATATATACGTGTGTGCACATGACAAAAGCATAT	10.6
AAAAAAAAAATATACACACACATATATATATATATA [CACACA_site3404]	9.84
ATAAAAAAAAGACACACACACATATATATATATATA [CACACA_site3073]	10.3
TAAATATATTTCATGACATGCAACTTGTTTTTTTGT [TGCATGCA_site456]	9.88
TCAACACACGTGGAATGTACTTTAGTATAAGAATTC [XGTACX_site7842]	9.69
CAAAGGGAAATTAACACACACATATTTATATTTATA [CACACA_site7202]	10.1
ATGTATATGATTAAATGTACGTAAACAAATTTGTAA [XGTACX_site8174]	9.81
ACCACATAAAACAAATGTACTTGAAATATATGCGTA [XGTACX_site5155]	9.67

Sequence	gcPBM binding intensity (ln)
AAGAAAACTTAAAATAAAAGCATATTTTATCTTACA [TGCATGCA_negctrl_site366]	9.36
TGCAGTCTGGAGAAGAGTACATAGTATCTGGTAGCT [XGTACX_site2021]	9.48
AGAGTACAAGTAAATACACACATATAGATGAAAATA [CACACA_site6635]	10.1
ATATATATATATATATGTACACACATCAATCATATT [XGTACX_site4005]	9.89
TATTAATAAATTTATAAAACAGGTATATATATATAT [CACACA_negctrl_site615]	9.54
TTTTATACATAAATGTGTACGTATATATAATGAATT [XGTACX_site2762]	9.6
TAAATATGCTCACAGATGCACTAACACATTTTTATA [GTGCAC_site9997]	9.72
TATTGTAGAGGCAAAAGTACACATTTAATAATTTCC [XGTACX_site1151]	9.68
ATCTATATAATATATACACACAAATATACAAAAAAA [CACACA_site1013]	9.86
ATAAATTAAAGACACACACACATCTGGATACCCCTA [CACACA_site7546]	10.4
TACATGCATTTCTCATGTACATAATTTTCCCATATT [XGTACX_site5158]	9.61
TTATATTATATATATAGTACACATGTAATATTTCAA [XGTACX_site1791]	9.51
TATGCTACAAGGAGAACACACAATTGCCACTTTTGG [CACACA_site2166]	9.71
AACCATTATTTCTCTACACACATTTATGTCATTTAC [CACACA_site1499]	10.1
TCCTTATATGGGCACACACACACAATAAAATGAAAA [CACACA_site1030]	10.3
AAAATTAGGTATATATGTACATATATAAATATATAT [XGTACX_site3555]	9.86
GTTTATATTAAACAAACACACACATATATATATATA [CACACA_site8749]	9.84
ATTTAGAATGCGTATACACACATATATAGATTTGCT [CACACA_site626]	9.77
AAAAAAATTAGACACACACACACATATAAATATGTA [CACACA_site6618]	10.8
AATAGAACTATTACACGTACAGAACATGAATTAGTT [XGTACX_site7518]	9.74
TTTTTTAATTAGTACAAACACACATATACAGACAAA [CACACA_site2564]	9.9
TGTTATATATGTAATTGTACACTTATACAAAATTAT [XGTACX_site6350]	9.65
TTATTAATATATAAATGTACATATACAATACATAAA [XGTACX_site5571]	9.65

Sequence	gcPBM binding intensity (ln)
TATTTAAGAGTATGAACACACATCATACACATATAA [CACACA_site3617]	9.77
TATGTTTGTGTATATATTTATTTTTATGTAATTATA [GTGCAC_negctrl_site219]	9.93
CAAAATATAACATCATCACACACATATACTTTATAT [CACACA_site8292]	10.8
ATTTAAAAATAAAGAACACACATATGTAAAATATAT [CACACA_site3754]	9.84
TCAGGAATATAAAGTGCACACATAATTTGGGGGCAA [CACACA_site7974]	10.1
TATATAAGGATATATACACACATATAGGTATTTATA [CACACA_site7092]	9.86
TTTTAAAAAAATAAAAAATAATAAAAAAAATAAAAA [CACACA_negctrl_site1693]	9.26
AATATGATTATTACCCGTACATATTACCTTATGGTA [XGTACX_site1714]	9.61
AATGATATTATCTCTTCACACACTCACATACAGACA [CACACA_site8335]	10.3
AAAAATAAATAAAGTGGTACATAAAAAAGAGAAATT [XGTACX_site874]	9.9
GTGCATATGTAGATATGTACATATTTATTTATTATT [XGTACX_site7343]	9.72
TTTACAGATACATTCACACATAAATTCATGTATAAT [CACACA_site5387]	9.72
ATATATAATTTTTGTTGTACATTATAAAAATAATTA [XGTACX_site2738]	9.09
ATTGTTATGAGAACAGCACACAAGCTACATCATATA [CACACA_site8192]	9.77
GCGGCGGTATCATGCACACGTATATATTGTAACAGT [CACACA_site4958]	9.79
TCATTGAAAAAAATGTGTACTCATCAAGTATATATT [XGTACX_site6430]	9.56
ATAAGAAAAAAGAACTGTACTAATAAAATATAAAAA [XGTACX_site3715]	9.64
ATTATATAATTGTCTTCACACACACCGATATATATA [CACACA_site8883]	10.5
GGATTTATTATATATACACACATACATATATATATA [CACACA_site8669]	9.88
GTCTAAGCTTATAGGCGTACACATGAATATGGATGT [XGTACX_site2439]	9.78
